Among the data in paper PMC6212790 are binding signal values, retold here.

The list shows a part of the results. At the low end of the ranking the order means little.

The target of the test is T1, GST-Rok-C97-191 (UniProt O34857).
T1 sequence: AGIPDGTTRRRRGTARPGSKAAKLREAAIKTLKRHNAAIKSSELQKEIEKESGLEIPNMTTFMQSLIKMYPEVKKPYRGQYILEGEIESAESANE
In words: protein binding microarray.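 Further: rank score from −0.5 (least bound) to 0.5 (best bound).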 As to conditions: Rok is a gene silencer of Bacillus subtilis; high values mean tight binding; most listed sequences are background and not binding sites; double strand, one strand shown.
As to AGAGGGAC, the binding signal is -0.178 E-score.
Under TCACTCAA stands 0.135 E-score; under CAGACGTC, -0.0671 E-score.
Then ATGTCAAC, with -0.000706 E-score.
Under ACGTACCA stands 0.18 E-score.
As to CAACGTAG, the binding signal is 0.185 E-score.
Under ACGGCGAA stands -0.0487 E-score; under AGAAATCA, 0.222 E-score.
Under CTAACAAG stands -0.0537 E-score; under CCTTGTGA, -0.104 E-score; under GGATCACC, -0.00901 E-score.
Then CTAAACCA, with 0.13 E-score; and TCCATCGA, with -0.208 E-score.
In the case of ATATCTTG, the binding signal was determined as 0.0605 E-score.
Under GTCTTCAA stands -0.0762 E-score; under AGCTACCA, 0.35 E-score; under GACTTCAA, -0.192 E-score.
Then CAATCAAC, with 0.11 E-score; and AGCCCTAG, with -0.244 E-score.
Under CATGTTTA stands -0.151 E-score.
Consider AGACGATA, for which the binding signal stood at 0.0652 E-score.
For CCTTATGA, the binding signal worked out at 0.0321 E-score.
Under TGCCGACA stands -0.157 E-score; under ATGTACCG, 0.305 E-score.
Then CAGGATAG, with 0.0399 E-score; and GCCTTTGA, with -0.0616 E-score; and CCGTATGC, with -0.19 E-score.
Then CTACTCAA, with 0.000659 E-score.
As for CCGGAGGA, the binding signal is -0.252 E-score.
Under GAGGCCTC stands -0.191 E-score.
Then AGTCAAAG, with -0.141 E-score; and CAGTGGCA, with -0.25 E-score; and AATGGTCG, with -0.192 E-score.
Then TCTTTAAA, with 0.0662 E-score; and ACCCTCCG, with -0.293 E-score.
GAAATATA showed a binding signal of 0.305 E-score.
Under AGAGCACA stands 0.0298 E-score; under AGTACCAA, -0.00151 E-score.
Then GTGATCAA, with -0.0649 E-score; and CCGAGCAG, with -0.0217 E-score.
Then GAAGACCA, with -0.0771 E-score; and CGCTGAGC, with -0.0805 E-score; and ACACTGAC, with -0.0517 E-score.
As for TAACCCAA, the binding signal was -0.0144 E-score.
In the case of AGTGCTTC, the binding signal is -0.27 E-score.
Under AGTCTCCA stands -0.0736 E-score.
Then ATAGCTAA, with 0.294 E-score; and ATTGTGTA, with 0.258 E-score.
Under GAAGTTCA stands -0.0152 E-score; under AGATGACT, 0.0396 E-score.
CACGGAAC gave a binding signal of -0.147 E-score.
The sequence ACGAGCGT registered a binding signal of -0.0934 E-score.
Then CGTTCGTC, with -0.214 E-score; and GACTCGAC, with -0.137 E-score; and GGCTCACA, with -0.177 E-score.
Under GCCATCAC stands -0.257 E-score; under AGCGTAAT, 0.2 E-score.
Under ATGTAATA stands 0.32 E-score; under CGCTTACA, -0.0304 E-score; under TCCAGACA, -0.188 E-score.
The sequence CGCCCCCC had a binding signal of -0.434 E-score.
ACGTGTGG: the binding signal is -0.0155 E-score.
The sequence CCCGGTAG gave a binding signal of -0.134 E-score.
Under CACTTCCA stands -0.0767 E-score; under AGGAGGTG, -0.177 E-score.
Then GGCGCCCA, with -0.207 E-score.
Then GTCGGCTA, with 0.011 E-score; and CACCAAGG, with -0.286 E-score; and CCACCTAA, with -0.0523 E-score.
AACCTAAA showed a binding signal of 0.0757 E-score.
As to GCCAGAAC, the binding signal was -0.0329 E-score.
Then ATTCTTAA, with 0.0601 E-score.
With CGAAGTAA, the binding signal came out at 0.0919 E-score.
Then TCTTTTCA, with -0.046 E-score; and TATCTAGA, with 0.159 E-score; and AGTAGTCG, with 0.17 E-score.
Under AATCGACA stands -0.0613 E-score; under AGGTGTAA, 0.217 E-score.
Under CAGCTGTC stands 0.00473 E-score.
GATTCTAA came in with a binding signal of 0.086 E-score.
Under GACCGCGC stands -0.263 E-score.
Then CACGGGTC, with -0.133 E-score; and TGTCACAA, with -0.0266 E-score.
Under CCCAGGGC stands -0.207 E-score; under ACCTGAAT, 0.131 E-score; under CCCGCGCC, -0.255 E-score.
Regarding ACAGGGCT, the binding signal was -0.097 E-score.
Then AACTATGC, with 0.179 E-score; and CGGTCCGA, with -0.0983 E-score; and CGTCCATA, with -0.238 E-score.
Turning to GGGGCGGA, the binding signal was -0.227 E-score.
Then CATGTCAC, with -0.0201 E-score; and AGTCTGCA, with -0.111 E-score.
Under CTCCAGGC stands -0.285 E-score.
Under CAGCGGCA stands -0.181 E-score.
With CCCCTATA, the binding signal is -0.0508 E-score.
GCCCCGTA came in with a binding signal of -0.169 E-score.
In turn, GGCATACA came in with a binding signal of 0.233 E-score.
Under GTCTTATA stands 0.152 E-score.
Then ACTTCGCT, with 0.104 E-score; and AGTCGCAT, with -0.0688 E-score.
Then AGAAGAAC, with 0.039 E-score.
Take ATGGCTTC: the binding signal was -0.163 E-score.
Regarding AACCGCCG, the binding signal is -0.18 E-score.
Under CGCAGGGA stands -0.128 E-score.
Under AAGAGGAT stands -0.139 E-score.
As for AAGAACTA, the binding signal was determined as 0.241 E-score.
Then AATTCGGC, with -0.0445 E-score; and ATTTAATG, with 0.105 E-score; and AAACAACT, with 0.174 E-score.
Then CAGAGACA, with -0.153 E-score; and AAAACATC, with 0.0819 E-score.
Then GCCCTCAA, with -0.185 E-score; and GATCTAGA, with 0.194 E-score; and GATCCTGA, with -0.134 E-score.
In the case of ATCTTCAT, the binding signal is 0.204 E-score.
Then TCAGAGCA, with -0.143 E-score.
Under GCCGTACA stands -0.0375 E-score; under CCGACGCA, -0.212 E-score; under CTCATGCA, -0.182 E-score.
Under AAGCTGAC stands -0.22 E-score.
In the case of CGTCCCCA, the binding signal is -0.225 E-score.
Then AAGGTCTA, with -0.133 E-score.
Sequence GTGCGCAA had a binding signal of -0.0525 E-score.
Then ATACATGG, with 0.117 E-score; and AAACGTTA, with 0.0818 E-score.
Then CCTAATCA, with 0.011 E-score; and CCATCACA, with -0.258 E-score.
Then GACAGCCC, with -0.305 E-score; and GGTTTAAC, with -0.0571 E-score; and CAGGGACG, with -0.15 E-score.
The sequence GCTCTAGA showed a binding signal of -0.233 E-score.
Under CCAACCTA stands -0.0204 E-score.
Under AATCTTGT stands -0.00621 E-score; under GCAGGTAA, -0.0453 E-score.
Under CAACATCA stands -0.0082 E-score.
CATTCACA showed a binding signal of -0.0242 E-score.
Then ACCCTCGA, with 0.0492 E-score; and ATCTTAGC, with 0.21 E-score; and CGGCGGCC, with -0.283 E-score.
Then AGCGAATG, with -0.0139 E-score; and AACTCTGA, with 0.00111 E-score; and CGAAGGCC, with -0.185 E-score.
Consider CACTTCTA, for which the binding signal was found to be 0.036 E-score.
Then CAGCTCTA, with -0.068 E-score.
Under CACGCGAG stands -0.0781 E-score; under TGGCTGAA, 0.00639 E-score; under ACTAACAC, 0.0585 E-score.
Then CCTGTACG, with -0.284 E-score.
Sequence ACAGAGCA returned a binding signal of -0.126 E-score.
Take TAAATAAA: the binding signal stood at 0.162 E-score.
Under AGCTAACT stands 0.142 E-score; under CGAGTTGC, 0.179 E-score; under CGCAGCCC, -0.273 E-score.
Under ACTGGCTA stands -0.109 E-score; under CTGACTCC, -0.282 E-score.
Then ACTTATTC, with 0.115 E-score.
Consider GCCAACTA, for which the binding signal amounted to 0.0359 E-score.
Under AAAATCCA stands 0.235 E-score; under ATACGCCC, -0.139 E-score.
Then ATATGTAC, with 0.309 E-score; and CAGGTACA, with 0.0523 E-score.
As to CTGTTCTC, the binding signal was -0.067 E-score.
Under CCGTGCGA stands -0.158 E-score.
Then TAACTAGA, with 0.247 E-score.
Then GGATTGGA, with -0.106 E-score; and CCCGGAGC, with -0.106 E-score.
AAACCTAA came in with a binding signal of 0.129 E-score.
Under AACATCGC stands -0.123 E-score.
Under CATTTCGG stands 0.00988 E-score; under AGCCCTTG, -0.305 E-score; under GCTCGCCC, -0.379 E-score.
